Where a chain is given by its changes, count along the chain named. In names and notes the source's numbering stands. ± gives the standard deviation of the averaged measurements. Laboratory Escherichia coli strains with one amino-acid change in an essential protein, pooled on minimal glucose agar with carbenicillin or gentamicin at twice the control MIC (plus kanamycin and chloramphenicol for the plasmids), 48 h. Fold change of barcode share against drug-free plates; higher = less susceptible. Active = above 20 in both replicates (the paper's putatively resistant). '<' = one read or none on drug, '>' = one read or none on a drug-free plate. Shares are relative, so most strains fall below 1 when a few take over. Listed are strains with at least 15 reads on both drug-free plates, and hits; most hits rest on fewer reference reads. Replicate rank correlation about 0.5. Edits are read from barcodes.
B1: purA L264W (protein)
chain: MGNNVVVLGTQWGDEGKGKIVDLLTERAKYVVRYQGGHNAGHTLVINGEKTVLHLIPSGILRENVTSIIGNGVVLSPAALMKEMKELEDRGIPVRERLLLSEACPLILDYHVALDNAREKARGAKAIGTTGRGIGPAYEDKVARRGLRVGDLFDKETFAEKLKEVMEYHNFQLVNYYKAEAVDYQKVLDDTMAVADILTSMVVDVSDLLDQARQRGDFVMFEGAQGTLLDIDHGTYPYVTSSNTTAGGVATGSGLGPRYVDYVWGILKAYSTRVGAGPFPTELFDETGEFLCKQGNEFGATTGRRRRTGWLDTVAVRRAVQLNSLSGFCLTKLDVLDGLKEVKLCVAYRMPDGREVTTTPLAADDWKGVEPIYETMPGWSESTFGVKDRSGLPQAALNYIKRIEELTGVPIDIISTGPDRTETMILRDPFDA
B2: purA L264Q (protein)
chain: B1 chain with W264Q
B3: purA I414A (protein)
chain: B1 chain with W264L, I414A
B4: purA I414W (protein)
chain: B1 chain with W264L, I414W
B5: purA I414Q (protein)
chain: B1 chain with W264L, I414Q
B6: purA L198A (protein)
chain: B1 chain with L198A, W264L
B7: purA L198W (protein)
chain: B1 chain with L198W, W264L
B8: purA L198Q (protein)
chain: B1 chain with L198Q, W264L
B9: purA L198D (protein)
chain: B1 chain with L198D, W264L
B10: purA L198P (protein)
chain: B1 chain with L198P, W264L
B11: purA I107A (protein)
chain: B1 chain with I107A, W264L

The proteins below were run against Escherichia coli (laboratory strain) (assay: barcode share on antibiotic plates over drug-free plates; higher = less susceptible). Settings: antibiotic: carbenicillin; 2× MIC (3.1 µg/mL).
Experimental: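 A pool of E. coli strains, each edited to carry one amino-acid change in an essential protein, was grown for 48 h on minimal glucose agar with or without antibiotic; strain barcodes were sequenced; mean of two replicates.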
In the case of B1, the “fold change of barcode share” value is reported as 0.321 ± 0.19. For B2, the “fold change of barcode share” value was 0.304 ± 0.062. With B3 the “fold change of barcode share” value was 0.249 ± 0.028. B4 was tested, and the “fold change of barcode share” value was 0.319 ± 0.16. With B5 the “fold change of barcode share” value was 0.411 ± 0.084. With B6 the “fold change of barcode share” value was 0.821 ± 0.4. For B7, the “fold change of barcode share” value was 0.496 ± 0.2. B8 was tested, and the “fold change of barcode share” value was 0.55 ± 0.27. With B9 the “fold change of barcode share” value was 0.476 ± 0.16. For B10, the “fold change of barcode share” value was 0.446 ± 0.038. In the case of B11, the “fold change of barcode share” value is reported as 0.321 ± 0.15.

Same assay, conditions: antibiotic: gentamicin; 2× MIC (MIC 0.45 µg/mL)
For B1, the “fold change of barcode share” value was under 0.00784. B2 was tested, and the “fold change of barcode share” value was under 0.009. B3 was tested, and the “fold change of barcode share” value was under 0.00889. B4 was tested, and the “fold change of barcode share” value was under 0.00953. In the case of B5, the “fold change of barcode share” value is reported as under 0.00974. With B6 the “fold change of barcode share” value was 0.00968 ± 0.0036. In the case of B7, the “fold change of barcode share” value is reported as under 0.0114. For B8, the “fold change of barcode share” value was 0.00868 ± 0.0065. In the case of B9, the “fold change of barcode share” value is reported as 0.00793 ± 0.0023. With B10 the “fold change of barcode share” value was under 0.00835. With B11 the “fold change of barcode share” value was under 0.018.

— the supplement of paper PMC11876631
